In the supplement of paper PMC10600219:
Counter-ions that a name gives are not always drawn. In all, about 2,800 compounds were measured (“cell viability relative to vehicle”: median about 0.98, lowest 2% from about 0.45 on). This is one part of the list.

These compounds were tested on NCI-H2228 alectinib-DTP (assay: cell viability relative to vehicle (fraction of vehicle); NCI-H2228 is an ALK-positive lung cancer line and DTP means drug-tolerant persister; higher = less growth inhibition). Conditions: 100 nM; treatment time 6 days.
In short: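 The 3114-agent TargetMol anti-cancer compound library was tested at 100 nM for 6 days on parental NCI-H2228 cells and on persister cells derived with 1000 nM of a targeted drug for 13 days. ATP readout by the CellTiter-Glo 3D Cell Viability Assay gave cell viability relative to DMSO vehicle-treated cells.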

Compared with `CN1CCN(CC(=O)N2c3ccccc3C(=O)Nc3cccnc32)CC1` [Pirenzepine dihydrochloride], `CCc1nn(CCCN2CCN(c3cccc(Cl)c3)CC2)c(=O)n1CCOc1ccccc1` [Nefazodone hydrochloride] is higher in cell viability: 0.882 for the first, 0.89 for the second.

First: CC(C)NC[C@@H](C(=O)N1CCN(c2ncnc3c2[C@H](C)C[C@H]3O)CC1)c1ccc(Cl)cc1 [Ipatasertib]
Second: CC(C)NCC(O)COc1ccc(CC(N)=O)cc1 (centres undefined) [Atenolol]
The cell viability of the first is lower: 0.822 for the first, 1.17 for the second.

Going from `CC(C)(C)c1cc(C(C)(C)C)c(NC(=O)c2c[nH]c3ccccc3c2=O)cc1O` [Ivacaftor] to `COc1cc(O)c(C(=O)/C=C/c2ccccc2)c(OC)c1` [Flavokawain B], the cell viability rises from 0.899 to 1.13.

Compared with `C=C1C(=O)O[C@@H]2C[C@@]3(C)CCCC(=C)[C@@H]3C[C@H]12` [Isoalantolactone], `CC(=O)O[C@]1(C(C)=O)CC[C@H]2[C@@H]3C=C(Cl)C4=CC(=O)CC[C@]4(C)[C@H]3CC[C@@]21C` [Chlormadinone acetate] is lower in cell viability: 0.952 for the first, 0.721 for the second.

First: Cc1ccc([C@@H]2O[C@H](CO)[C@@H](O)[C@H](O)[C@H]2O)cc1Cc1ccc(-c2ccc(F)cc2)s1 [Canagliflozin]
Second: Cc1noc(-c2ccc(-c3ccc(CC(=O)O)cc3)cc2)c1NC(=O)OC(C)c1ccccc1Cl (centres undefined)
The cell viability of the first is lower: 0.882 for the first, 1.01 for the second.

Going from `Oc1cc2c(cc1O)C(c1ccccc1)CNCC2` (centres undefined) to `NC(=O)Nc1cc(-c2cccc(F)c2)sc1C(=O)N[C@H]1CCCNC1`, the cell viability falls from 0.948 to 0.741.

First: Cn1c(=O)c2c(ncn2CC2OCCO2)n(C)c1=O [Doxofylline]
Second: CN(C)CCOC(c1ccccc1)c1ccccc1.Cn1c(=O)c2[nH]c(Cl)nc2n(C)c1=O [Dimenhydrinate]
The cell viability of the first is higher: 1.13 for the first, 1.05 for the second.

Compared with `CC(C)(O)[C@H]1CC[C@H](Nc2ccc3ncc(-c4cccc(C(F)(F)F)c4)n3n2)CC1`, `CCN1CCN(Cc2ccc(NC(=O)Nc3ccc(Oc4cc(NC)ncn4)cc3)cc2C(F)(F)F)CC1` is higher in cell viability: 0.921 for the first, 1.23 for the second.

First: COCC(=O)NC/C=C/c1ccc2ncnc(Nc3ccc(Oc4ccc(C)nc4)c(C)c3)c2c1
Second: Cc1cnc(Nc2ccc(OCCN3CCCC3)cc2)nc1Nc1cccc(S(=O)(=O)NC(C)(C)C)c1 [Fedratinib]
The cell viability of the first is higher: 1.08 for the first, 0.876 for the second.

First: CCOC(=O)[C@H]1O[C@@H]1C(=O)N[C@@H](CC(C)C)C(=O)NCCC(C)C [Aloxistatin]
Second: N[C@@H](CCCCNC(=O)C(F)(F)F)C(=O)O [N-6-Trifluoroacetyl-L-lysine]
The cell viability of the first is higher: 1.08 for the first, 0.966 for the second.

Compared with `CCCCCCCCNc1cc(=O)[nH]c(=O)[nH]1`, `CC(C)c1cnn2c(NCc3ccccc3)cc(NCCCCCCN)nc12` is lower in cell viability: 0.987 for the first, 0.781 for the second.

Going from `Nc1nc2c(ncn2COC(CO)CO)c(=O)[nH]1` [Ganciclovir] to `COc1c(C)cnc(Cn2cnc3c(Cl)nc(N)nc32)c1C`, the cell viability falls from 1.21 to 0.841.

First: CC(C)c1cccc(O)c(=O)c1 [β-thujaplicin]
Second: CC1=C(C)C(=O)C(C(CCCCCC(=O)O)c2ccccc2)=C(C)C1=O (centres undefined) [Seratrodast]
The cell viability of the first is lower: 0.965 for the first, 1.04 for the second.

Compared with `Cc1csc(-c2nnc(Nc3ccc(Oc4ncccc4-c4ccnc(N)n4)cc3)c3ccccc23)c1`, `c1ccc2c(CCNc3ccc(Nc4ccncc4)cc3)c[nH]c2c1` [Serdemetan] is higher in cell viability: 0.77 for the first, 0.995 for the second.

Compared with `CNCCc1ccccn1` [Betahistine], `CCCCCOc1ccccc1/C(=C\SC)n1ccnc1` [Neticonazole Hydrochloride] is higher in cell viability: 0.973 for the first, 1.01 for the second.

First: CNCCc1ccccn1 [Betahistine dihydrochloride]
Second: O=C1NCC2(CCN(CCc3ccccc3)CC2)O1 [Fenspiride hydrochloride]
The cell viability of the first is lower: 1.19 for the first, 1.23 for the second.

Going from `CNCCc1ccccn1` [Betahistine mesylate] to `Cc1[nH]cnc1CN1CCc2c(c3ccccc3n2C)C1=O` [Alosetron hydrochloride], the cell viability falls from 1.09 to 0.935.

First: CN(C)C(=N)NC(=N)N [Metformin hydrochloride]
Second: NCCCCCC(=O)O [6-Aminocaproic acid]
The cell viability of the first is higher: 1.07 for the first, 1.02 for the second.

First: C[C@H](O)[C@@H](O)[C@@H](O)[C@H](O)C=O [L-(-)-Fucose]
Second: CC1CCC(C(C)C)C(O)C1 (racemic) [DL-Menthol]
The cell viability of the first is lower: 1.09 for the first, 1.17 for the second.

Going from `O=C(Cc1ccccc1)Nc1nnc(CCSCCc2nnc(NC(=O)Cc3ccccc3)s2)s1` to `O=C(CSc1nc2c(c(=O)n1-c1ccccc1)SCC2)Nc1ccc(-c2ccccc2)cn1`, the cell viability falls from 1.12 to 0.887.

First: CCCNC(=O)NS(=O)(=O)c1ccc(Cl)cc1 [Chlorpropamide]
Second: COc1ccc(Cl)c(Nc2nc3ccccc3nc2NS(=O)(=O)c2cccc(NC(=O)C(C)(C)N)c2)c1 [Pilaralisib]
The cell viability of the first is higher: 1.21 for the first, 0.99 for the second.

First: C=CCN(C)CCCCCCOc1ccc(C(=O)c2ccc(Br)cc2)c(F)c1 [Ro 48-8071 fumarate]
Second: CCN(CC)c1ccc(/C=N/NC(=O)c2ccc(O)cc2)cc1
The cell viability of the first is higher: 1.06 for the first, 0.973 for the second.

Going from `Cn1ncnc1[C@H]1c2n[nH]c(=O)c3cc(F)cc(c23)N[C@@H]1c1ccc(F)cc1` [Talazoparib] to `Nc1nccc(Oc2ccc(NC(=O)c3c[nH]cc(-c4ccc(F)cc4)c3=O)cc2F)c1Cl`, the cell viability rises from 0.928 to 1.02.

First: CN(C)S(=O)(=O)c1ccc2c(c1)/C(=C/c1cc3c([nH]1)CCCC3)C(=O)N2
Second: CCCc1nn(C)c2c(=O)[nH]c(-c3cc(S(=O)(=O)N4CCN(C)CC4)ccc3OCC)nc12 [Sildenafil citrate]
The cell viability of the first is lower: 0.969 for the first, 0.994 for the second.

First: Clc1cccc(Cl)c1NC1=NCCN1 [Clonidine hydrochloride]
Second: O=S(=O)(c1cccc2c(O)nccc12)N1CCCNCC1 [Hydroxyfasudil Hydrochloride]
The cell viability of the first is lower: 1.06 for the first, 1.1 for the second.

Compared with `C[C@]12C=CC(=O)N[C@@H]1CC[C@@H]1[C@@H]2CC[C@]2(C)[C@@H](C(=O)Nc3cc(C(F)(F)F)ccc3C(F)(F)F)CC[C@@H]12` [Dutasteride], `CC(=O)[C@@]1(O)CC[C@H]2[C@@H]3CCC4=CC(=O)CC[C@]4(C)[C@H]3CC[C@@]21C` [Hydroxyprogesterone] is lower in cell viability: 0.975 for the first, 0.937 for the second.

First: CO[C@H]1/C=C/O[C@@]2(C)Oc3c(C)c(O)c4c(O)c(c5c(nc6cc(C)ccn65)c4c3C2=O)NC(=O)/C(C)=C\C=C\[C@H](C)[C@H](O)[C@@H](C)[C@@H](O)[C@@H](C)[C@H](OC(C)=O)[C@@H]1C [Rifaximin]
Second: C[C@@H]1O[C@@H](O[C@@H]2[C@@H](O)[C@H](OCCc3ccc(O)c(O)c3)O[C@H](COC(=O)/C=C/c3ccc(O)c(O)c3)[C@H]2O)[C@H](O)[C@H](O)[C@H]1O [Isoacteoside]
The cell viability of the first is lower: 0.95 for the first, 1.04 for the second.

Compared with `Nc1ccn([C@H]2C[C@H](O)[C@@H](CO)O2)c(=O)n1` [2'-Deoxycytidine monohydrate], `O=S(=O)(c1cccc2cnccc12)N1CCCNCC1` [Fasudil hydrochloride] is lower in cell viability: 1.03 for the first, 0.936 for the second.

Going from `COc1cc(C(C)C)c(Oc2cnc(N)nc2N)cc1I` to `COc1cc2nc(N3CCCN(C)CC3)nc(NC3CCN(Cc4ccccc4)CC3)c2cc1OC`, the cell viability rises from 1.06 to 1.08.

First: O=C(O)CCc1ccc(NCc2cccc(Oc3ccccc3)c2)cc1
Second: COc1cccc2c(NCc3ccccc3)nc(-n3c(N)nc4ccccc43)nc12
The cell viability of the first is lower: 0.92 for the first, 1.03 for the second.

Compared with `Cc1cc(C)c(S(=O)(=O)N(CCc2cccc(Br)c2)Cc2ccc(-c3cccc(S(C)(=O)=O)c3)cc2)c(C)c1`, `Cn1cc(C2=C(c3cccc(N)c3)C(=O)NC2=O)c2ccccc21` is lower in cell viability: 1.12 for the first, 0.932 for the second.

First: Clc1ccc2c(c1)CCc1cccnc1C2=C1CCNCC1 [Desloratadine]
Second: OC(c1cc(-c2ccc(Cl)cc2)nc2ccccc12)C1CCCCN1 (centres undefined) [Vacquinol-1]
The cell viability of the first is lower: 0.967 for the first, 0.99 for the second.

Going from `CCS(=O)(=O)N1CC(CC#N)(n2cc(-c3ncnc4[nH]ccc34)cn2)C1` [Baricitinib Phosphate] to `N#CC[C@H](C1CCCC1)n1cc(-c2ncnc3[nH]ccc23)cn1` [Ruxolitinib], the cell viability falls from 1.1 to 0.891.

Compared with `CCS(=O)(=O)N1CC(CC#N)(n2cc(-c3ncnc4[nH]ccc34)cn2)C1` [Baricitinib], `CN(C[C@@H]1COCCO1)S(=O)(=O)Nc1ccc2ccc3ncc(-c4cnn(C)c4)cc3c(=O)c2c1` is lower in cell viability: 0.992 for the first, 0.914 for the second.

Going from `Nc1nc(O)c2[nH]nnc2n1` [8-Azaguanine] to `NNC(=O)c1ccncc1.Nc1ccc(C(=O)O)c(O)c1` [Pasiniazid], the cell viability rises from 0.78 to 1.08.

Going from `O=C(c1c(F)ccc(NS(=O)(=O)N2CC[C@@H](F)C2)c1F)c1c[nH]c2ncc(-c3cnc(C4CC4)nc3)cc12` to `O=C(c1ccc(F)c(F)c1Nc1ccc(I)cc1F)N1CC(O)([C@@H]2CCCCN2)C1` [Cobimetinib], the cell viability falls from 1.02 to 0.865.

Going from `C[C@H]1[C@H](C)CC[C@]2(C(=O)O)CC[C@]3(C)C(=CC[C@@H]4[C@@]5(C)CC[C@H](O)C(C)(C)[C@@H]5CC[C@]43C)[C@H]12` [Ursolic acid] to `CCC(C)(C)C(=O)O[C@H]1C[C@@H](C)C=C2C=C[C@H](C)[C@H](CC[C@@H]3C[C@@H](O)CC(=O)O3)[C@H]21` [Simvastatin], the cell viability rises from 1.11 to 1.21.

Going from `COc1cc(NC(=O)Nc2cccc(CNC(=O)O[C@H]3CCOC3)c2)ccc1-c1cnco1` [Merimepodib] to `CCN1CCN(Cc2ccc(NC(=O)c3ccc(C)c(NC(=O)c4cncc(-c5cccs5)c4)c3)cc2C(F)(F)F)CC1`, the cell viability falls from 1.09 to 0.789.

Compared with `CN1CCN(c2ccc3[nH]c(-c4ccc5[nH]c(-c6ccc(O)cc6)nc5c4)nc3c2)CC1`, `NC1CCN(c2c(F)cc3c(=O)c(C(=O)O)cn(C4CC4)c3c2Cl)C1` (centres undefined) [Clinafloxacin] is lower in cell viability: 1.19 for the first, 0.957 for the second.

Compound `C/C1=C/CC[C@H](C)C(=O)C[C@@H](C(C)C)C(=O)C1` [Curdione] has a cell viability of 1.01.
